# About 4,300 (8.3%) of roughly 52,000 compounds were called active. No stated cut-off is given here; in the data, active means survival mostly below about 52% (no sharp cut-off); inactive means mostly above about 56%. This is one part of the list.
# System: DeltatarO mutant
# Assay: growth inhibition of S. aureus wild type versus tarO mutant, primary screen, teichoic acid synthesis inhibitors, RN4220, OD600 (AID 463173)
# Conditions: OD600, 18 h, hits give low values, screened at 18.75 µg/mL (by protocol)
row,SMILES,survival
1,O=C1CCC(=O)N1CN1CCN(c2ccccc2)CC1,inactive: 104%
2,Cc1ccc2c(c1)-c1c(cnc3cc(-c4ccc(Cl)cc4)nn13)CO2,inactive: 52%
3,Cc1ccc(CCNC(=O)c2sc3nc4n(c(=O)c3c2C)CCCC4)cc1,inactive: 62%
4,Cc1ccc2onc(CNC(=O)N3CCN(c4cc(Cl)ccc4C)CC3)c2c1,inactive: 48%
5,CC(CNC(=O)c1cc2cc(S(=O)(=O)N3CCCCC3)ccc2n1C)c1ccccc1 (stereo not drawn),inactive: 81%
6,COc1ccc(OC)c(CCNC(=O)c2cc3cccc4c3n2CCS4)c1,inactive: 80%
7,Cc1ccc(C)c(N2CCN(S(=O)(=O)c3ccc(F)c(C(=O)Nc4ccc(Cl)cc4Cl)c3)CC2)c1,inactive: 96%
8,CC(O)Cn1c(Br)nc2c1c(=O)n(C)c(=O)n2C (stereo not drawn),inactive: 101%
9,Cc1cc2n(n1)CCCN2C(=O)Nc1ccc(C)c(Cl)c1,inactive: 79%
10,CN(c1ccccc1)S(=O)(=O)c1nnc(NC(=O)c2cccs2)s1,inactive: 43%
11,CCN(Cc1ccccc1)C(=O)CCS(=O)(=O)c1cc(Br)cc2c1N(C(=O)C1CC1)CC2,inactive: 73%
12,CCOC(=O)c1c(C)oc2ccc(N(C(=O)c3ccncc3)S(=O)(=O)c3ccc(F)cc3)cc12,active: 28%
13,CCCSc1ncc(Cl)c(C(=O)Nc2sc3c(c2C(N)=O)CCCC3)n1,active: 46%
14,Cc1ccccc1CNC(=O)Cc1csc2ccccc12,inactive: 85%
15,COc1ccccc1NC(=O)CCNS(=O)(=O)c1ccc2c(c1)CCN2C(=O)C1CC1,inactive: 102%
16,CCNc1nc(OCC(F)(F)F)nc(N(c2ccccc2)c2ccccc2)n1,inactive: 74%
17,COC(=O)c1ccc(-n2nnc(-c3nsc(NC(=O)c4ccc(Cl)cc4)n3)c2C)cc1,inactive: 65%
18,Cc1ccccc1CNCCSc1nnnn1C,inactive: 84%
19,CC1CCN(S(=O)(=O)c2ccc3c(c2)oc(=O)n3CC(=O)N2CCCCC2)CC1,inactive: 66%
20,O=C(Nc1ccc(O)c(-c2nc3ccccc3o2)c1)c1ccc(-c2cccc(Cl)c2)o1,inactive: 49%

row,SMILES,survival
1,Cc1cccc(C)c1NC(=O)c1nc(SC(C)C)ncc1Cl,inactive: 105%
2,Cc1cc(C)cc(N(CC(=O)Nc2ccc(C)cc2Cl)S(=O)(=O)c2c(C)[nH]c(=O)[nH]c2=O)c1,inactive: 58%
3,COCCCNC(=O)C1CCN(C(=O)c2ccc(-n3ccc4ccccc43)s2)CC1,inactive: 74%
4,CCOc1ccccc1NC(=O)Cn1c(=O)n(CCCCC(=O)NCCCOC)c(=O)c2ccccc21,inactive: 149%
5,CCc1ccccc1N(C)C(=O)c1cc2c(Cl)nc3ccc(C)cc3c2s1,active: -4%
6,Cc1ccc2[nH]c3c(=O)n(CC(=O)NCCCN4CCN(c5ccc(F)cc5)CC4)ncc3c2c1,inactive: 85%
7,N#Cc1ccccc1Cn1c(=O)n(-c2ccccc2)c(=O)c2c3c(sc21)CCC3,inactive: 82%
8,O=C(NCc1cccc(F)c1)C1CCN(c2nn3cc(-c4ccc(F)cc4)nc3s2)CC1,inactive: 87%
9,COc1ccc(NC(=O)c2ccco2)cc1NC(=O)COc1cc(C)ccc1C(C)C,inactive: 63%
10,CC(=O)N1c2ccccc2CC1C(=O)N1CCN(c2cc(Cl)ccc2C)CC1 (stereo not drawn),inactive: 83%
11,CS(=O)(=O)N1CCN(S(C)(=O)=O)CC1,inactive: 62%
12,Cc1nc(N)c(S(=O)(=O)c2ccccc2)c(Nc2ccc(Br)cc2)n1,inactive: 87%
13,COc1cccc(/C=C/c2nc3ccccc3c(=O)n2-c2ccc(C)c(C)c2)c1OC,inactive: 94%
14,COc1ccc(Cl)cc1S(=O)(=O)N1CCC(c2ccncc2)CC1,inactive: 126%
15,Cc1cccc(OCC(=O)NCc2ccc3c(c2)CCN3C(=O)c2ccc(Cl)cc2)c1,inactive: 87%
16,O=C(c1cccn1-c1nnc(N2CCCC2)s1)N1CCN(c2ccc(F)cc2)CC1,inactive: 118%
17,CCOc1ccc(NC(=O)c2c(NC(=O)c3ccncc3)sc3c2CCC(C(C)(C)C)C3)cc1 (stereo not drawn),inactive: 113%
18,O=C(c1ccc(F)cc1)N1CCN(CCc2ccncc2)CC1,inactive: 84%
19,Cc1ccccc1Nc1c(-c2ccc(O)cc2)nc2c(C)cccn12,inactive: 72%
20,COc1cccc(CNC(=O)CSc2nnc(C)c3c(C)n(-c4ccccc4)nc23)c1,inactive: 77%

row,SMILES,survival
1,COc1ccc(NC(=O)CCS(=O)(=O)c2cc3c4c(c2)CCN4C(=O)CC3)cc1OC,inactive: 94%
2,CCC(C(=O)Nc1ccc(F)cc1F)n1nc(-c2ccccc2)c2c(c1=O)CCCC2 (stereo not drawn),active: 38%
3,O=C(NCc1ccco1)C(C(=O)c1ccccc1)n1ccccc1=O (stereo not drawn),inactive: 72%
4,Cc1c(Cl)cccc1-n1nnc(-c2nc(-c3ccc4c(c3)OCO4)no2)c1C,inactive: 73%
5,COc1ccc(C)cc1NS(=O)(=O)c1cc(Br)cc2c1N(C(C)=O)C(C)C2 (stereo not drawn),inactive: 56%
6,Cc1c(C(=O)N(Cc2cccc(Cl)c2)Cc2ccco2)oc2ccccc12,active: 40%
7,C=CCN(C)NC(=S)Nc1ccccc1,inactive: 98%
8,O=C(Cn1cc(SCc2ccc(Cl)cc2)c2ccccc21)N1CCCC1,inactive: 83%
9,CC(=O)Nc1ccc(NC(=O)CN2C(=O)CCc3cc(S(=O)(=O)N4CCCCC4)ccc32)cc1,inactive: 89%
10,O=C(Nc1ccc(F)cc1)Nc1nnc(SCC(=O)N2CCCCC2)s1,inactive: 80%
11,Cc1cccc(CNC(=O)CN2CC(C)Sc3ccccc32)c1 (stereo not drawn),inactive: 94%
12,COc1cccc(NC(=O)c2ccc3c(=O)n4nc(Nc5ccccc5OC)sc4nc3c2)c1,inactive: 67%
13,COc1ccc(CNC(=O)c2ccc(CNS(=O)(=O)c3ccc(OC)cc3)cc2)cc1,inactive: 84%
14,COCCCNC(=O)c1ccc(Cn2c(=O)c3ccccc3n(Cc3ccc(C)cc3)c2=O)cc1,inactive: 67%
15,CCOC(=O)c1ccc(NC(=O)CC2Nc3cc(C)c(C)cc3NC2=O)cc1 (stereo not drawn),inactive: 75%
16,CC(C)C(=O)Nc1cccc(C(=O)Nc2nncs2)c1,inactive: 87%
17,COC(=O)c1sccc1S(=O)(=O)N(CC(=O)Nc1cc(C)cc(C)c1)c1ccc(Cl)cc1,inactive: 88%
18,COc1ccc(-n2c(SCC(=O)NCc3ccccc3)nc3ccsc3c2=O)cc1,inactive: 88%
